This is one part of the list. Sequences were assembled here from the parent chain. Values near 0.05 are background.
B1: TEV protease; numbered along this chain (parent)
chain: MGESLFKGPRDYNPISSSICHLTNESDGHTTSLYGIGFGPFIITNKHLFRRNNGTLVVQSLHGVFKVKDTTTLQQHLVDGRDMIIIRMPKDFPPFPQKLKFREPQREERICLVTTNFQTKSMSSMVSDTSCTFPSGDGIFWKHWIQTKDGQCGSPLVSTRDGFIVGIHSASNFTNTNNYFTSVPKNFMELLTNQEAQQWVSGWRLNADSVLWGGHKVFMVKPEEPFQPVKEATQL

Variants of: B1
Assay: raw area under fraction-flipped curve 0-4 h after induction (AUC4h, not background-subtracted), DNA-recorder readout of cleavage of the substrate (dimensionless); higher = more cleavage of the substrate by the protease variant
Details: temperature: 34 °C; time window: 0-4 h after rhamnose induction
Procedure: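 In vivo DNA recorder in E. coli TOP10(DE3) ΔrhaA at 34 °C. Each TEVp single-site mutant (parent TEVp 0) is paired with a single-site variant of the 7-mer TEVs (canonical ENLYFQ|S). The substrate sits between flexible linkers in a Bxb1-sfGFP-TEVs-SsrA fusion, so cleavage stabilises Bxb1 and speeds flipping of a recombination array, read by NGS. The value is the raw area under the fraction-flipped curve over 0-4 h after rhamnose induction (AUC4h), with ≥20 reads per time point. It is not background-subtracted; inactive controls average about 0.047.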
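Also: Bxb1 expression induced with 0.2% (w/v) L-rhamnose at OD600 near 0.5, cultures sampled hourly, flipped fraction per protease–substrate barcode pair counted by paired-end Illumina sequencing.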

Variant | area with substrate ENLYFQA | area with substrate ENLYFQC | area with substrate ENLYFQF | area with substrate ENLYFQG | area with substrate ENLYFQH | area with substrate ENLYFQK | area with substrate ENLYFQL | area with substrate ENLYFQM | area with substrate ENLYFQN | area with substrate ENLYFQR | area with substrate ENLYFQS | area with substrate ENLYFQV | area with substrate ENLYFQD | area with substrate ENLYFQI | area with substrate ENLYFQP | area with substrate ENLYFQT | area with substrate ENLYFQW | area with substrate ENLYFQY | area with substrate ENLYFQQ
MGESLFKGPRDYNPISSSICHLTNESDGHTTSLYGIGFGPFIITNKHLFRRNNGTLVVQSLHGVFKVKDTTTLQQHLVDGRDMIIIRMPKDFPPFPQKLKFREPQREERICLVTTNFQTKSMSSMVSDTSCTFPSADGIFWKHWIQTKDGQCGSPLVSTRDGFIVGIHSASNFTNTNNYFTSVPKNFMELLTNQEAQQWVSGWRLNADSVLWGGHKVFMVKPEEPFQPVKEATQL [G136A] | 0.0881 | 0.105 | 0.0611 | 0.089 | 0.0793 | 0.0652 | 0.0798 | 0.0843 | 0.0602 | 0.0624 | 0.0956 | 0.0264 | – | – | – | – | – | – | –
MGESLFKGPRDYNPISSSICHLTNESDGHTTSLYGIGFGPFIITNKHLFRRNNGTLVVQSLHGVFKVKDTTTLQQHLVDGRDMIIIRMPKDFPPFPQKLKFREPQREERICLVTTNFQTKSMSSMVSDTSCTFPSEDGIFWKHWIQTKDGQCGSPLVSTRDGFIVGIHSASNFTNTNNYFTSVPKNFMELLTNQEAQQWVSGWRLNADSVLWGGHKVFMVKPEEPFQPVKEATQL [G136E] | 0.0575 | 0.128 | – | 0.097 | – | – | 0.0633 | – | – | 0.0506 | 0.106 | 0.0429 | 0.0384 | 0.0612 | 0.0659 | 0.0649 | 0.0687 | 0.0633 | –
MGESLFKGPRDYNPISSSICHLTNESDGHTTSLYGIGFGPFIITNKHLFRRNNGTLVVQSLHGVFKVKDTTTLQQHLVDGRDMIIIRMPKDFPPFPQKLKFREPQREERICLVTTNFQTKSMSSMVSDTSCTFPSFDGIFWKHWIQTKDGQCGSPLVSTRDGFIVGIHSASNFTNTNNYFTSVPKNFMELLTNQEAQQWVSGWRLNADSVLWGGHKVFMVKPEEPFQPVKEATQL [G136F] | 0.0933 | 0.116 | – | 0.0998 | 0.105 | 0.0556 | 0.0602 | 0.0815 | 0.0811 | 0.0899 | 0.104 | 0.0604 | 0.0746 | – | 0.0535 | 0.06 | 0.0621 | 0.0841 | –
MGESLFKGPRDYNPISSSICHLTNESDGHTTSLYGIGFGPFIITNKHLFRRNNGTLVVQSLHGVFKVKDTTTLQQHLVDGRDMIIIRMPKDFPPFPQKLKFREPQREERICLVTTNFQTKSMSSMVSDTSCTFPSVDGIFWKHWIQTKDGQCGSPLVSTRDGFIVGIHSASNFTNTNNYFTSVPKNFMELLTNQEAQQWVSGWRLNADSVLWGGHKVFMVKPEEPFQPVKEATQL [G136V] | 0.0799 | 0.116 | – | 0.103 | 0.0822 | 0.0439 | 0.0601 | 0.0644 | – | 0.0549 | 0.0988 | 0.0574 | – | 0.0583 | – | 0.0558 | 0.0626 | 0.071 | –
MGESLFKGPRDYNPISSSICHLTNESDGHTTSLYGIGFGPFIITNKHLFRRNNGTLVVQSLHGVFKVKDTTTLQQHLVDGRDMIIIRMPKDFPPFPQKLKFREPQREERICLVTTNFQTKSMSSMVSDTSCTFPSGDGIFWYHWIQTKDGQCGSPLVSTRDGFIVGIHSASNFTNTNNYFTSVPKNFMELLTNQEAQQWVSGWRLNADSVLWGGHKVFMVKPEEPFQPVKEATQL [K142Y] | 0.0966 | 0.115 | 0.0655 | – | – | 0.0599 | 0.0558 | 0.0913 | – | 0.0813 | 0.0974 | – | – | 0.0611 | 0.0539 | 0.0757 | – | – | –
MGESLFKGPRDYNPISSSICHLTNESDGHTTSLYGIGFGPFIITNKHLFRRNNGTLVVQSLHGVFKVKDTTTLQQHLVDGRDMIIIRMPKDFPPFPQKLKFREPQREERICLVTTNFQTKSMSSMVSDTSCTFPSGDGIFWKHAIQTKDGQCGSPLVSTRDGFIVGIHSASNFTNTNNYFTSVPKNFMELLTNQEAQQWVSGWRLNADSVLWGGHKVFMVKPEEPFQPVKEATQL [W144A] | 0.0797 | 0.0914 | 0.0559 | – | 0.0699 | 0.0748 | 0.0604 | 0.0721 | – | 0.0619 | 0.0855 | 0.0686 | 0.0853 | 0.0384 | – | 0.0746 | – | 0.0675 | 0.0596
MGESLFKGPRDYNPISSSICHLTNESDGHTTSLYGIGFGPFIITNKHLFRRNNGTLVVQSLHGVFKVKDTTTLQQHLVDGRDMIIIRMPKDFPPFPQKLKFREPQREERICLVTTNFQTKSMSSMVSDTSCTFPSGDGIFWKHFIQTKDGQCGSPLVSTRDGFIVGIHSASNFTNTNNYFTSVPKNFMELLTNQEAQQWVSGWRLNADSVLWGGHKVFMVKPEEPFQPVKEATQL [W144F] | 0.0663 | – | – | 0.0994 | 0.0875 | 0.0651 | 0.0731 | 0.0855 | 0.0661 | – | 0.0917 | 0.0491 | 0.0888 | 0.0602 | – | 0.0689 | 0.0666 | – | –
MGESLFKGPRDYNPISSSICHLTNESDGHTTSLYGIGFGPFIITNKHLFRRNNGTLVVQSLHGVFKVKDTTTLQQHLVDGRDMIIIRMPKDFPPFPQKLKFREPQREERICLVTTNFQTKSMSSMVSDTSCTFPSGDGIFWKHIIQTKDGQCGSPLVSTRDGFIVGIHSASNFTNTNNYFTSVPKNFMELLTNQEAQQWVSGWRLNADSVLWGGHKVFMVKPEEPFQPVKEATQL [W144I] | 0.0884 | – | – | – | 0.0605 | 0.0585 | 0.0604 | – | 0.0513 | 0.0554 | 0.0875 | – | 0.0636 | 0.0576 | – | 0.0657 | – | – | –
MGESLFKGPRDYNPISSSICHLTNESDGHTTSLYGIGFGPFIITNKHLFRRNNGTLVVQSLHGVFKVKDTTTLQQHLVDGRDMIIIRMPKDFPPFPQKLKFREPQREERICLVTTNFQTKSMSSMVSDTSCTFPSGDGIFWKHWTQTKDGQCGSPLVSTRDGFIVGIHSASNFTNTNNYFTSVPKNFMELLTNQEAQQWVSGWRLNADSVLWGGHKVFMVKPEEPFQPVKEATQL [I145T] | 0.102 | 0.118 | 0.0781 | 0.112 | 0.0877 | 0.0644 | 0.0682 | 0.0941 | 0.0709 | 0.0502 | 0.11 | 0.0594 | – | 0.0657 | 0.0558 | 0.0677 | 0.0588 | 0.0795 | –

From the supplement of paper PMC12217912
